Measurements: the supplement of paper PMC7826260
The other results are listed elsewhere or left out. One pool of 16,384 single-stranded DNAs met each Rep nickase domain in vitro (3 µM enzyme, 1 h, 37 °C); shown is the middle of each 90-letter strand. Uncut reads are compared with the no-enzyme pool on a log2 scale; strong cutting gives strongly negative numbers. There is no active / inactive call. Counts are relative to all reads, so uncut sequences can rise above 0 when many others are cut.

What was measured:
Test in all cases: uncleaved DNA left, log2 of reads against the no-enzyme library (log2 ratio); higher = less cleavage (more negative = more Rep cleavage of the k-mer); sequences stand for … in CTCGTCCG…ACCGGAGA
[1] = system: T1, Rep nickase domain of Muscovy duck circovirus
T1 sequence (residues 1-111, tag not shown): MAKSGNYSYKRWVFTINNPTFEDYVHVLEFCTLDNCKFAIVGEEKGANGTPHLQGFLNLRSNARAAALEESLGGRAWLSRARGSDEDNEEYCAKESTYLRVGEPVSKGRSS
Procedure: (§1)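 A pool of 90-nt single-stranded DNAs with seven random bases just before the constant AC of the nick site (name = the seven bases) was cut by 3 µM recombinant His6-SUMO-tagged Rep nickase domain (300 nM DNA, 50 mM HEPES pH 8.0, 50 mM NaCl, 1 mM MnCl2, 1 h, 37 °C, three replicates). Uncut DNA was amplified and sequenced.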

[2] = system: T2, Rep nickase domain of banana bunchy top virus
T2 sequence (residues 1-94, tag not shown): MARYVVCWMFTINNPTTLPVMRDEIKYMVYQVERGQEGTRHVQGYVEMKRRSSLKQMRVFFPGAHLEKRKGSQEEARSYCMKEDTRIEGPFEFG
Procedure: as §1

[3] = system: T3, Rep nickase domain of cabbage leaf curl virus
T3 sequence (residues 1-116, tag not shown): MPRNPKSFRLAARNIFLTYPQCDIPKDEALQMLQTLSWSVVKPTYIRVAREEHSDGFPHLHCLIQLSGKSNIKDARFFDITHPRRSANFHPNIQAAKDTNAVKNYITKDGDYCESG
Procedure: as §1

[4] = system: T4, Rep nickase domain of chickpea chlorotic dwarf virus
T4 sequence (residues 1-124, tag not shown): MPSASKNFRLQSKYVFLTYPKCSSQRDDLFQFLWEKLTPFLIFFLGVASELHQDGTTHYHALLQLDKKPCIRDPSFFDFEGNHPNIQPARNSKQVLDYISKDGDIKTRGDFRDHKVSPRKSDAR
Procedure: as §1

[5] = system: T5, Rep nickase domain of faba bean necrotic yellows virus
T5 sequence (residues 1-98, tag not shown): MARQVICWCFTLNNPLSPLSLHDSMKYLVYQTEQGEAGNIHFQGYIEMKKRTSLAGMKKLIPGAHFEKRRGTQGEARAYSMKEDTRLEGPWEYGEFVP
Procedure: as §1

[6] = system: T6, Rep nickase domain of maize striate mosaic virus
T6 sequence (residues 1-117, tag not shown): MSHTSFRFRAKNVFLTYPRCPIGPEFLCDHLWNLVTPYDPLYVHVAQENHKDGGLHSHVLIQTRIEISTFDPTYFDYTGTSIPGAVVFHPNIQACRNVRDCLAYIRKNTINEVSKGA
Procedure: as §1

[7] = system: T7, Rep nickase domain of porcine circovirus 2
T7 sequence (residues 2-116, tag not shown): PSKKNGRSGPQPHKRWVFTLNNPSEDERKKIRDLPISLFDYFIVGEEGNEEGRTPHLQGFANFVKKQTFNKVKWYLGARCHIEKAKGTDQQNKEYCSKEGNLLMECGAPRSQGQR
Procedure: as §1

[8] = system: T8, Rep nickase domain of tomato golden mosaic virus
T8 sequence (residues 1-124, tag not shown): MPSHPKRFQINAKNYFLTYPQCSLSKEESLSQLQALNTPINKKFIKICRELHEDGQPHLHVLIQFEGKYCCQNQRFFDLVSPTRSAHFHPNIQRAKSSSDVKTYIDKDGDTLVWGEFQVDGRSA
Procedure: as §1

[9] = system: T9, Rep nickase domain of tomato yellow leaf curl virus
T9 sequence (residues 1-136, tag not shown): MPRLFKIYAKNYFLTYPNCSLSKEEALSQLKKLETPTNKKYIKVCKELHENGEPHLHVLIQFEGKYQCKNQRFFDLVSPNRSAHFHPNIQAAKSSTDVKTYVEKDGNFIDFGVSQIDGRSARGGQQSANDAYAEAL
Procedure: as §1

[10] = system: T10, Rep nickase domain of wheat dwarf virus
T10 sequence (residues 1-137, tag not shown): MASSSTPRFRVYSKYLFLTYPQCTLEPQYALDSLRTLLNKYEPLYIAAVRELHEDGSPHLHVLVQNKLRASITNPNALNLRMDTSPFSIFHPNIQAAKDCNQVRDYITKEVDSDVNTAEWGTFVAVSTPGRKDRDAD
Procedure: as §1

Sequence	uncleaved DNA left (log2) [1]	uncleaved DNA left (log2) [2]	uncleaved DNA left (log2) [3]	uncleaved DNA left (log2) [4]	uncleaved DNA left (log2) [5]	uncleaved DNA left (log2) [6]	uncleaved DNA left (log2) [7]	uncleaved DNA left (log2) [8]	uncleaved DNA left (log2) [9]	uncleaved DNA left (log2) [10]
TCGGTAG	-0.0265	0.0451	-0.17	-0.174	0.04	-0.639	0.253	0.0658	0.11	-0.0555
GGATTAT	-0.0378	0.14	0.538	1.44	-0.0759	1.98	-0.108	0.0289	0.0714	0.103
GTCGCGC	-0.118	-0.0475	-0.386	-0.405	-0.0267	-0.411	0.107	-0.0529	0.0462	-0.181
CGTTTCA	-0.189	0.0802	0.0485	-0.132	-0.202	0.245	-0.0352	-0.00916	-0.036	0.056
ACCCTCG	-0.142	-0.0794	-0.736	0.374	-0.0102	-0.596	-0.0114	-0.00601	-0.109	0.0526
AAACTAG	0.172	0.0839	-0.59	-0.832	0.0815	-1.27	0.217	0.12	0.1	0.0274
CGCAGCT	0.111	0.0831	0.226	0.222	0.0411	0.0342	0.1	0.106	-0.107	0.0151
AAAGGGA	-0.0228	0.0323	0.243	1.15	0.068	1.21	0.119	0.0524	-0.0885	0.0446
GTTCGGA	0.108	0.0987	0.318	0.853	0.0389	1.14	0.181	0.062	-0.0126	0.101
CGCCTTA	-0.0722	0.0569	0.129	-0.623	0.102	-0.237	-0.183	0.0594	0.0631	-0.0813
AGGGGCC	0.0258	0.0664	0.367	1.1	-0.0197	1.09	0.19	0.0176	0.0618	-0.0169
CTCATAT	-0.0345	-0.123	-0.0768	-0.977	-0.0908	-0.531	-0.158	-0.162	-0.025	-0.0455
GTCCTAG	0.0999	0.0794	0.351	0.683	0.0107	1.38	0.0648	0.138	0.0256	0.0885
GAGGGCC	-0.0805	0.0622	0.503	1.09	-0.0175	1.64	0.21	0.0228	0.0617	0.167
ACCACTG	-0.00485	0.00217	-0.436	-0.0894	-0.0951	-0.484	0.0735	-0.039	-0.0638	-0.134
CAGTGCC	-0.122	-0.163	-0.736	-0.705	-0.0436	-1.02	-0.851	-0.0566	-0.0484	-0.181
AAGAGTC	0.0879	0.155	0.243	0.313	0.13	0.156	0.129	0.187	0.151	0.203
ACGAGAT	0.0458	0.0426	0.243	0.672	-0.0516	0.672	0.125	0.0607	-0.134	0.0275
TCCTCAT	0.0545	-0.206	0.158	-0.356	-0.0442	-0.0368	-0.694	-0.024	0.0732	-0.095
CCTCCCA	-0.194	-0.143	-0.0481	-1.12	-0.206	-0.432	-0.466	-0.254	-0.142	-0.201
TCGGGTG	-0.00514	-0.0337	-0.0803	0.0281	-0.0644	0.0294	0.219	0.0451	-0.00547	-0.101
ATTTCGC	0.123	-0.0527	-0.611	-0.761	0.035	-1.12	0.17	0.00164	0.0557	-0.0159
GTTTGTA	0.0438	0.012	0.325	0.876	0.0207	1.73	0.0464	0.0771	0.199	0.0711
ACGTACA	-0.0313	0.026	-0.209	-1.3	0.111	-0.562	-0.0698	-0.0785	0.017	0.0368
CGCTAGT	-0.96	-0.19	-0.206	-0.331	-0.092	-0.682	-2.71	-0.185	-0.0815	-0.0766
GAAGTGC	0.0833	0.0469	-0.461	-0.415	0.0737	-0.83	0.0645	0.0463	0.0991	0.00724
TTTTAAT	-3.42	-0.419	0.0868	-1.12	0.138	-0.00341	-3.28	0.0367	0.069	-0.118
CCGAGGA	-0.0186	-0.0631	0.306	0.605	0.0243	0.301	-0.0848	0.0412	-0.0637	0.103
CATAGAT	0.118	0.0098	0.158	0.0618	0.0658	0.565	0.00522	0.159	0.00843	0.0367
TGAGCCT	-0.00969	-0.0282	0.154	-0.316	0.0936	0.365	-0.0875	-0.109	-0.0997	0.0117
